# Laboratory results published in the supplement of paper PMC11417369.
# ± gives the standard deviation of the averaged measurements. The list shows a part of the results.
# System: PfAP2-G AP2 domain (GST-tagged)
# Assay: gcPBM binding intensity (ln(normalized median fluorescence intensity)); higher = stronger DNA binding
# Procedure, shortened: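 Binding intensity is the highest Masliner-normalised natural-log median intensity over replicate spots in either probe orientation. To obtain it, GST-tagged P. falciparum DNA-binding domains made in E. coli were incubated for 1 h on an Agilent 4 × 180k array of primer-extended double-stranded 36-bp intergenic genomic probes plus negative controls. Detection used Alexa488 anti-GST antibody with scanning at 488 nm.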
row,Sequence,gcPBM binding intensity (ln)
1,AATCTATATTGACACACACACAAAAAAAAAAAAAAA [CACACA_site6739],10.1 ± 0.35
2,ATTTTAACCAATTATTGTACTTGGTTATTCTTTTTT [XGTACX_site7453],11.1 ± 0.68
3,ATATATATATTAAAGGTGCACAAATAAATATATACA [GTGCAC_site9532],10.4 ± 0.35
4,ATATTTTTTTTCTTCACACACATGAATTATATATAA [CACACA_site3216],10.3 ± 0.33
5,ATATATATTCATAATACACACATTCTGTAGCATTAT [CACACA_site2067],9.855 ± 0.035
6,ATAGTATCTGGTAGCTGTACGAATGGTAGAGAGTAG [XGTACX_site2548],11.4 ± 0.59
7,AATAAAAAGATATTCTCCTTGTTCCTTTTTTTTAAA [CACACA_negctrl_site1147],10.2 ± 0.2
8,TATATATATGTATGATGTACATATATGCATATATAT [XGTACX_site3399],11 ± 0.79
9,TTAATTAAATATTATACACACAAAAAAATAATTTTA [CACACA_site96],10 ± 0.16
10,GTTAAAATAATATTATGTACATATATATAAAAATAT [XGTACX_site8512],11.3 ± 0.71
11,GTTTGTAAATATTTTACACACATATTTATTTATATA [CACACA_site6632],9.86 ± 0.12
12,TATAAATATGTGTTTACACACAATAATGAATTAAAA [CACACA_site6555],9.83 ± 0.11
13,AACCTCAAATACACAAGTACGTATAATAAGGAACAA [XGTACX_site4304],11.4 ± 0.8
14,CATATTAAAAATACATGTACATATATATTTAATATA [XGTACX_site8580],11.3 ± 0.91
15,ATGGAAAAATGTATATATAAAATAAATATATTATAT [CACACA_negctrl_site1712],9.6 ± 0.2
16,TTTTAAATAAATCATGCATGCACATATAATTATATT [TGCATGCA_site151],9.865 ± 0.064
17,TTATGAAAAAAATACTGTACACAATATGACGAAAGT [XGTACX_site2283],11.5 ± 0.7
18,TATATATAATATATATGTACATATGTATAATATTTA [XGTACX_site4400],11 ± 0.45
19,ATTCAATAATTGTTTTTTTTCTTTTTGTTTTTGTTT [GTGCAC_negctrl_site563],9.51 ± 0.22
20,TATCTCATTTGGAATTGTACTAACAGATACTTGTTT [XGTACX_site2672],10.9 ± 0.54
21,TATACGCATATTTTTACACACATATTTTTTCATATA [CACACA_site2546],10.02 ± 0.049
22,TTTTACTAGATATATACACACATTATACCTATAGAT [CACACA_site7530],10.02 ± 0.014

row,Sequence,gcPBM binding intensity (ln)
1,ACATTTTTTTTTTTTTTTTTTTTCTTACATCATGCA [CACACA_negctrl_site1413],10 ± 0.22
2,ATATAAAGGTTTATTAGTACACATTAGAATACTTTT [XGTACX_site4492],11.3 ± 0.69
3,GAAATATTTTGTTGTGCATGCGACATTAAATAAAAA [TGCATGCA_site331],10.3 ± 0.32
4,AAATTATTGAAATACGCATGTGTTTTTTTTTTTTTT [TGCATGCA_site391],10.1 ± 0.12
5,AATATTACGTCTGGACGTACAAATCTTTTTCGTGTC [XGTACX_site6644],11.5 ± 0.68
6,CATATTAGGACAAAGTGTACATATATATATATATAT [XGTACX_site1172],11.4 ± 0.86
7,ACATTCAATCTACTGTGTACATATTAAACTTTGAAA [XGTACX_site2913],11.4 ± 0.75
8,TATTATATTTATTTATGTACACATATACTTAAATAA [XGTACX_site1355],11.4 ± 1
9,TGTAATACAGAAAAAAGTACTAAAAAGAAAAGGATT [XGTACX_site3176],11.3 ± 0.61
10,ACACCTATAAATTAAGTGCATTTTTTTTGATGTTAT,9.78 ± 0.2
11,TTTTTTTTTTTAATATGTACGTAAAATAAGTTTAAA [XGTACX_site6495],11.4 ± 0.95
12,TACATCTGTATATAAACACACAACAAAAATGCTTAC [CACACA_site3814],9.95 ± 0.11
13,AAATTAAATCCGCACGCACACACACCGATTAATAAA [CACACA_site9321],10.5 ± 0.43
14,AATATATAAATAGATACACACATACATACATACATA [CACACA_site4301],10.1 ± 0.13
15,AAAAAATATATATCACGTGGTAATATATATATATAT [XGTACX_negctrl_site252],10.13 ± 0.099
16,ATATATATACAACAAGCATGCAGTAATTTTTTTTTT [TGCATGCA_site728],9.505 ± 0.078
17,CTATAATAACATAACACACACATGTATTTATAGGTG [CACACA_site6298],10.3 ± 0.11
18,TCCTTATAAAAATACACACAAACTTTAATTAAAACA [CACACA_site3730],9.99 ± 0.2
19,TAATCAACAAAATCTACACACTAAAATGAAATATAA [CACACA_site3749],9.94 ± 0.028
20,AAATAAAAAGTAAAGCGTACAAATGATCAAATAATA [XGTACX_site7898],11.3 ± 0.9
21,AGGCGTGAAATATACGTACACACATTATTTATATTT [CACACA_site2558],11.6 ± 1
22,TATAAATAGATATATACACACTTGTGCAGAATATTA [CACACA_site7112],9.84 ± 0.071
